# Data published in the supplement of paper PMC11417369.
# The other results are listed elsewhere or left out.
# Test system: PfHDP1 homeodomain (GST-tagged)
# Assay: gcPBM binding intensity (ln(normalized median fluorescence intensity)); higher = stronger DNA binding
# Procedure, shortened: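 DNA-binding domains from P. falciparum, fused to GST and produced in E. coli, were put on an Agilent 4 × 180k double-stranded probe array for 1 h in 1× PBS holding 1% milk, 0.2 mg/ml BSA, 0.5% salmon testes DNA and 0.03% Triton X-100. Probes were primer-extended, 36 bp long and drawn from intergenic genomic regions, with negative controls included. After Alexa488 anti-GST antibody detection and a 488 nm scan, binding intensity was set as the highest Masliner-normalised natural-log median intensity across replicate spots of either probe orientation.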
row,Sequence,gcPBM binding intensity (ln)
1,TAAAGCATATTATAAACACACACTGTATAAAGATAT [CACACA_site296],6.7
2,TTGTTTTTAATATCGGTGCAATGGAAAGAAAAGAAG [GTGCAC_site9494],9.94
3,TATACATATGAAAATACACACATACATACAGATATA [CACACA_site5002],6.64
4,AAAAAAAATATAATATGTACATATCTATATATCAAC [XGTACX_site4881],6.58
5,TTTTTATATGCGTATTGTACATTATACATATATATA [XGTACX_site6786],6.51
6,CCTTTTTTGTTTTATGCACACCATATAACCAAGGCT [CACACA_site7893],10.3
7,TAAATGTCCTTATTTGCACACACACCCATAAGAAAT [CACACA_site3185],10.4
8,TATATATAAAAATATACACACACAAATGTATATATA [CACACA_site7956],6.36
9,ATGTAATGAAACATTGCACACATATAATAATATAAT [CACACA_site8402],9.81
10,AAAAAAAAAAAAAAGCGTACAAATAAAATATATTTA [XGTACX_site7195],6.3
11,AATTAAATTACTTATACACACATAAAATGGGTGTAT [CACACA_site4703],6.48
12,CGTATATATAAATACACACACATATATATCTGTAAA [CACACA_site4272],6.74
13,TTAATTTATTTATGCACACATATATAATTACCCATA [CACACA_site682],10.7
14,TTTTCTCTCAAAAAATGTACATAATATATATATTTT [XGTACX_site4861],6.98
15,AGAATATCAAAATAAAGTACATTTATTATATATATG [XGTACX_site7100],6.15
16,AAAAAAAAAAAACATACACACATACATACCTATATA [CACACA_site6575],6.44
17,TTTTTTTTTAAGATGAAGATCAATATATAAATATAT [CACACA_negctrl_site1538],6.06
18,ATTCTTATAACAAGAAGTACAAATATATGTATATAT [XGTACX_site4528],6.45
19,AAACATAAGAAACACACACACATATATATATATATA [CACACA_site3642],9.3
20,ATGATGTGCAAGAGTAGTACACAATTTTGGGTTTAT [XGTACX_site501],9.42
21,AACATCAATTTATTTTCTTACATTATACGATTCATG [CACACA_negctrl_site1300],6.51
22,TAATTATGCCAACACACACACACACCCAACTAAAAA [CACACA_site8823],6.96
23,AAAAAAAAATCAAAATGTACTTATTTTTATAATAAT [XGTACX_site4712],6.31

row,Sequence,gcPBM binding intensity (ln)
1,GTGGTTGTAATGGTGGTGCATATTGTATATTATGTT,10.2
2,TTTCTATATCTTTCAACACACAAATTTTTTTTTCCA [CACACA_site108],6.46
3,ACATACATACCCCCACGTACGTACCGAAACACCACC [XGTACX_site1982],7.32
4,AATTTTATATATATATGTACATATTTATATGCTTAT [XGTACX_site8180],6.75
5,AATATAAGTGTACATACACACTTTACAATATCATAT [CACACA_site5634],6.49
6,CAAAGAACTTATAGGGTGCTTTACTTATAAGTAAAT [GTGCAC_site9579],6.12
7,ATATAAAGTATGTTAGTGCACTTTTTTTTTTTTTTT [GTGCAC_site9419],10.4
8,TCATAGGAGAACTTTTGTACAGATTTTTCTTTTTTT [XGTACX_site2853],6.19
9,GTAATACACATATAATGTACTCATAAATATATTTAT [XGTACX_site4041],7.28
10,ATGTTAACTAAATGTACACACCTATGTTGATGTAAC [CACACA_site5073],6.69
11,AAAGTTTAAATGAGAAGTACAAATTTTTGTTTTTAT [XGTACX_site1844],6.1
12,TATATATATAAAATATGTACATAAAATTATTTATTT [XGTACX_site7666],6.88
13,AATAATATATATATATATATATATAGATATGTATAT [GTGCAC_negctrl_site653],7.08
14,AGCAAAAATTAAATAAATAAATATATATATATATAT [TGCATGCA_negctrl_site449],9.15
15,ATATTAATAATATATACACACATAAGTATTGTATAT [CACACA_site4095],6.46
16,GCAACATTCTAAGACACACACACACCCATATATATA [CACACA_site1053],7.02
17,AATGATGTCATAGGGGGTACACATAAATGTGAATGT [XGTACX_site6745],6.92
18,TTACTACTATATTATACACACATATATATATATATA [CACACA_site2621],9.34
19,TTAAAAGAAAAAATATGTACATATATTATATATATC [XGTACX_site7009],6.51
20,TGTGAATAAATAAGCACACATAAACACATATATAAA [CACACA_site6114],6.89
21,TTTATTTATGTAGATACACACCCATGTTATATGGAG [CACACA_site9144],6.43
22,TTCTAATATTTTTGCACACTAAACAATAAATTTCCT [CACACA_site3944],10.1
23,TATACATAGAAACACACACACATATATATATATATA [CACACA_site2248],9.33

row,Sequence,gcPBM binding intensity (ln)
1,GTTTATTCTTTTTATACACACCTTATTTGATTAACA [CACACA_site4567],6.93
2,AATATTCAATATATATATATATATAATATTAATATA [GTGCAC_negctrl_site571],6.4
3,TAATACCATAACAAGTGTACATAAATAATTATTGTA [XGTACX_site4949],6.86
4,AAGGATTTTTTATACACACACTAACTAATGTATATA [CACACA_site7163],6.54
5,ATATTTTATTTAATTACACACAATATTGCAATTTGT [CACACA_site669],8.74
6,TATATTACTTTGTGTTGTACGGAAATATATATATAT [XGTACX_site4309],8.93
7,TCTTCTAATTTACCTACACACAGGAGATATATAAAT [CACACA_site6276],6.74
8,TAATTAATTTATTAGTTGCACTGTACCATTAGAGTA,7.85
9,GTTCATAAATTAAACACACACACACCCCTGGATACC [CACACA_site3331],7.41
10,TATATATATATATATTGTACAAAATATTTATATGTT [XGTACX_site436],9.39
11,ATCAACATTATGGTTAGTACTTAGTGAATTGTTAAT [XGTACX_site4926],6.48
12,TTATACACCTTTCATTGTACATATAATTTATATTCT [XGTACX_site8685],7.12
13,GTGTAATATATTTTTCGTACATATTATATATATATA [XGTACX_site1675],8.44
14,TTTTTATTGAGATACTTATATAATTTTATGAATAAA [XGTACX_negctrl_site311],6.01
15,TTTTTTTGCTCTTTTTATATATATATATATATATAT [GTGCAC_negctrl_site70],9.28
16,TTTGAAAAGTTGAAATGTACACATTTACACATATTT [XGTACX_site1641],6.24
17,CTTATATATTGGGATAGTACTTTTAACTAAATAGAA [XGTACX_site5900],6.23
18,TGTTGTATTTTTACAACACACATTTAATCCATTTAA [CACACA_site1507],6.03
19,ACTTTACGAATTAAGAGTACTTATTTAAGGAACACT [XGTACX_site7919],6.47
20,AAATACATATCATGTAGTACATATATATGTAGGTTA [XGTACX_site5392],6.63
21,AAAACTATTAAATGTAGTACATAATTATTGAAATAA [XGTACX_site8716],6.5
22,ATAATTATTCTTATGGTGCACTGAATATACATGTTG [GTGCAC_site9760],9.5
23,ATAGCACATTTTTAAGCACACGTTTATTATATATAT [CACACA_site6084],6.93

row,Sequence,gcPBM binding intensity (ln)
1,CAAAAATATATTTTTTGTACACAAAAAAAAAATAAA [XGTACX_site5229],6.37
2,TATACATGTTATGTACATCTAATCACACGTGCAATA [CACACA_negctrl_site1267],9.15
3,TCTTTTTACACCTCTTACATAAAACAAAATAAGGGG [XGTACX_negctrl_site12],7.09
4,TGTATGTTTGGGTGCACACATAAATATTATATATAG [CACACA_site3397],10.2
5,ATATATATAAAACACACACACACATGGTTTAAAACT [CACACA_site4219],6.96
6,TTGTAAATTTACATTTGTACATAAATATATTAATAT [XGTACX_site3969],6.84
7,AAAAAGGAGAAACACACACACACACCCATATATATA [CACACA_site905],6.98
8,CATGCTACATCTTATTGTACTTATCTAATGTTAGTA [XGTACX_site1863],6.75
9,AGGCAATATTATATATATATATATATATATATATAT [CACACA_negctrl_site826],9.3
10,ATTTTTTTTTTTTTTTTTTATATGCTCTCCATGAGA [CACACA_negctrl_site1225],6.36
11,ATTAATATGAATAAAACACACATATATAATTTGTAA [CACACA_site1929],6.13
12,TAACTTTTATCCTTAATTCATATATAAGATTAAATC [CACACA_negctrl_site669],6.29
13,AAAAAAAAAAAGAAATGTACATGAATATTTTAAATG [XGTACX_site4069],6.29
14,TATATATTCATATGTTGTACATAAATACAAATAAGA [XGTACX_site5602],6.67
15,TGCAGTCTGGAGAAGAGTACACAGTATCTGGTAACA [XGTACX_site2037],5.77
16,TGGCATTAAAATTTAGTGCATATATCTTAGCATGGG,8.68
17,TGTGTATATTATATGTGTACATATCAATGTTTATAT [XGTACX_site1885],6.64
18,TAATATATAACGTGCACACACACATCTACGTATGAA [CACACA_site5080],9.9
19,TAATATTAAATAAATAAAATATATAATATATATATA [XGTACX_negctrl_site49],8.07
20,GTATGATGCATAAGAGTGCATAAGGATATTTCTTCA,9.4
